Assay [1] has as its target T1, human BAFF (10056-HNCH, Sino biological) (human, UniProt Q9Y275 part only).
T1 construct: Bought protein
As to the kind of experiment: competition ELISA: biotin-labeled BAFF to coated TACI. As to the method: A receptor protein was diluted to 2 μg/mL with PBS at pH 7.4 (BasalMedia, B320) and added to a 96-well microplate (Corning, 3590) at 100 μL/well. The plate was incubated at 4° C. overnight. After the liquid was discarded, 200 μL of 1% Casein blocking solution (Thermo, 37528) was added to each well for blocking, and the plate was incubated at 37° C. for 2 h. After the blocking was completed, the blocking solution was discarded, and the plate was washed 3 times with a PBST buffer (PBS at pH 7.4 containing 0.1% tween-20) for later use. A biotin-labeled ligand protein at a fixed concentration was mixed with the antibody or fusion protein diluted in gradient, pre-incubated at 37° C. for 30 min, and added to a blocked microplate. The plate was incubated at 37° C. for 1.5 h. After the incubation was completed, the plate was washed 3 times with PBST. 100 μL of streptavidin-HRP (Invitrogen, 434323, diluted at a ratio of 1:4000) was added to each well, and the plate was incubated at 37° C. for 1 h. The supernatant was removed, and the plate was washed 3 times with PBST. […] The plate was read for absorbance values at 450 nm on a microplate reader, the curves for the inhibition of the binding of the ligands to the receptors were fitted with software, and the IC₅₀ values were calculated. […]
For orientation: In an ELISA, binding on a coated surface is turned into a signal by an enzyme label.

The target of assay [2] is T2, IL-23 (R&D Systems, 1290-IL-010) (UniProt Q9NPF7 20-189; P29460 23-328).
T2 sequence (looked up) 1: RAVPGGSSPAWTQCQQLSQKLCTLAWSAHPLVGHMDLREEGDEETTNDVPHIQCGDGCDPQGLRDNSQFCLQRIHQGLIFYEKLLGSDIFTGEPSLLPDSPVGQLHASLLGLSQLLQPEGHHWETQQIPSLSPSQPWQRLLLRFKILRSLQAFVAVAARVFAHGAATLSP
T2 sequence (looked up) 2: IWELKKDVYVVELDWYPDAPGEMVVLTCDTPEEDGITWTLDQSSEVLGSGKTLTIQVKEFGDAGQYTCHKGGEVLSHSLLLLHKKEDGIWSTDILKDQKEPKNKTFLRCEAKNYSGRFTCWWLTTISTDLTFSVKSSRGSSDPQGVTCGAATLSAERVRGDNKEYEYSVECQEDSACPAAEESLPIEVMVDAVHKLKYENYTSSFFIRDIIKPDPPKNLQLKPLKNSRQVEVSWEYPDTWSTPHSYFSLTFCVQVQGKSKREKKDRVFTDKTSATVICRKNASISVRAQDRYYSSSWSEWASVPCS
Kind of assay: cell-based or functional assay.

In assay [3] the target is T1, human BAFF (10056-HNCH, Sino biological). As to the kind of experiment: ELISA, BAFF coated, sample titrated. The procedure: (§1) The binding activity of the antibodies or fusion proteins for BAFF, APRIL, and IL-12/23 p40 was assayed by the ELISA method (coating an antigen protein). The specific procedures were as follows:
(§2) A BAFF (Sino biological, 10056-HNCH), APRIL (R&D Systems, 5860-AP-010/CF), or IL-12/23 p40 (Sino biological, 10052-H08H) protein was diluted to 1 μg/mL with a PBS (BasalMedia, B320) buffer at pH 7.4, and added to a 96-well microplate (Corning, 3590) at 100 μL/well. The plate was incubated at 4° C. overnight. After the liquid was discarded, 300 μL of 5% skim milk (BD, 232100) diluted with PBS was added to each well for blocking, and the plate was incubated at 37° C. for 2 h. After the blocking was completed, the blocking solution was discarded, and the plate was washed 3 times with a PBST buffer (PBS at pH 7.4 containing 0.1% tween-20). 100 μL of test antibody or fusion protein solution diluted in a gradient was added to each well, and the plate was incubated at 37° C. for 1 h. After the incubation was completed, the plate was washed 3 times with PBST. […] The plate was washed 3 times with PBST. […] The plate was read for absorbance values at 450 nm on a microplate reader, the binding curves of the antibodies to an antigen were fitted with software, and the EC₅₀ values were calculated.

In assay [4] the target is T3, human APRIL (5860-AP-010/CF, R&D Systems) (human, UniProt O75888 115-250, limits assumed).
T3 construct: Bought protein
T3 sequence (looked up): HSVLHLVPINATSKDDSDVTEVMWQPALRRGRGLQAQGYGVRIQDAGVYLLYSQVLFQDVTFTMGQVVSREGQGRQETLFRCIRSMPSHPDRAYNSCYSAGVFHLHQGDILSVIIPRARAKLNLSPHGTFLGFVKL
As to the kind of experiment: ELISA, APRIL coated, sample titrated. The procedure: as §1, §2

From US20240301031A1 (JIANGSU HENGRUI PHARMACEUTICALS, published 2024) come the findings set out here.

T1 sequence (Q9Y275 134-285 limits assumed): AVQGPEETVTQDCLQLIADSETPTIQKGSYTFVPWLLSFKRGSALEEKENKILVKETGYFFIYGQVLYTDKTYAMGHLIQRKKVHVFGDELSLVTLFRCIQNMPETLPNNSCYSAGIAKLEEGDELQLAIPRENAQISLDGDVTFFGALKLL

B1: TACI-Mab1 (other)
heavy: EVQLVQSGAEVKKPGESLKISCKGSGYSFTTYWLGWVRQMPGKGLDWIGIMSPVDSDIRYSPSFQGQVTMSVDKSITTAYLQWNSLKASDTAMYYCARRRPGQGYFDFWGQGTLVTVSS[omitted - human IgG1 constant region]GGSSTSCREEQGEFYDHLLRDCISCASICGQHPKQCAAFCENK
light: [omitted - about 200 residues]
notes: also called TACI antibody fusion protein
A word on the IC50: it is the concentration needed to halve the response being measured. By EC50 is commonly meant the concentration needed to bring the measured effect to its halfway point. A lower EC50 goes with higher potency in that assay. Turning to B1, the IC50 in assay [1] was 0.253 nM. The “IC50 (nM) for the inhibition of IL-23-induced IL-17 secretion” value in assay [2] turned out to be 1.69 nM. Besides, the figures for the EC50 in assay [3] and in assay [4] were 3.75 nM and 1.84 nM, respectively.

B2: TACI-Mab2 (other)
heavy: EVQLVQSGAEVKKPGESLKISCKGSGYSFTTYWLGWVRQMPGKGLDWIGIMSPVDSDIRYSPSFQGQVTMSVDKSITTAYLQWNSLKASDTAMYYCARRRPGQGYFDFWGQGTLVTVSS[omitted - human IgG1 constant region]GGSSTSCREEQGEFYDHLLRDCISCASICGQHPKQCAAFCENK
light: STSCREEQGEFYDHLLRDCISCASICGQHPKQCAAFCENKLGGGGSGGGGSGGGGS[omitted - about 200 residues]
notes: as for B1
For the molecule B2, in assay [1], the IC50 was found to be 0.184 nM. Moreover, the “IC50 (nM) for the inhibition of IL-23-induced IL-17 secretion” value in assay [2] is 2.34 nM. Further, the concentration for a half-maximal effect (EC50) in assay [3] stood at 4.79 nM; in assay [4], 1.29 nM.
